Test results reported in patent US10299477B2 (priority 2015, dated 2019).

Assays:
Type in all cases: in vivo
Botrytis cinerea = assay: Test Example B: Gray mold on tomato; details: for Test B (control value class): gray mold on tomato, Botrytis cinerea; for Test B control value: Gray mold on tomato
Description: [Test Example B] Gray Mold on Tomato
Seeds of a test plant (tomato variety: Oogata Fukuju) were planted followed by cultivating until three to five first leaves (true leaves) appeared.

Alternaia brassicicola = assay: Test Example C: Alternaria sooty spot on cabbage; details: for Test C (control value class) / Test C control value: Alternaria sooty spot on cabbage
Description: [Test Example C] Alternaria Sooty Spot on Cabbage
Seeds of a test plant (cabbage variety: Shikidori) were planted followed by cultivating until the cotyledons extended.

[1] = tested on: Blumeria graminis f sp. hordei; assay: Test Example D: Powdery mildew on barley; details: for Test D (control value class): powdery mildew on barley; for Test D control value: Powdery mildew on barley
Description: [Test Example D] Powdery Mildew on Barley
After the sprayed dilutions were dried, conidia of Blumeria graminis f sp. hordei were inoculated to the plants by shaking off.

Puccinia recondita = assay: Test Example E: Brown rust on wheat; details: for Test E (control value class): brown rust on wheat, Puccinia recondita; for Test E control value: Brown rust on wheat
Description: [Test Example E] Brown Rust on Wheat

Plasmopara viticola = assay: Test Example G: Downy mildew on vine; details: for Test G (control value class): downy mildew on vine, Plasmopara viticola, 250 ppm spray; for Test G control value: Downy mildew on vine, 250 ppm sprayed before inoculation
Description: [Test Example G] Downy Mildew on Vine
Seeds of a test plant (grape variety: Neomuscat) were planted followed by cultivating until three to four first leaves appeared. […] After the sprayed dilutions were dried, a zoosporangia suspension (1-2×10^4 zoosporangia/ml) of Plasmopara viticola was inoculated to the plants by spraying.

[2] = 250 ppm spray, preventive, control value class

Row | SMILES | Test B (control value class) (Botrytis cinerea; 250 ppm spray) | Test C (control value class) (Alternaia brassicicola; 250 ppm spray) | Test D (control value class) ([1]; 250 ppm spray) | Test E (control value class) (Puccinia recondita; 250 ppm spray) | Test G (control value class) (Plasmopara viticola; 7-10 days after inoculation) | Test B control value (Botrytis cinerea) | Test C control value (Alternaia brassicicola) | Test D control value [1] | Test E control value (Puccinia recondita) | Test G control value (Plasmopara viticola; 7-10 days after inoculation) | further results
1 | CCn1c(-c2c(F)cc(OC)cc2F)c(-c2cc(F)ccc2F)cc(Cl)c1=O [Compound 469] | H (H shows more than 50% of control values) | H (H shows more than 50% of control values) | H (H shows more than 50% of control values) | H (H shows more than 50% of control values) | L (L shows 50% or less of control values) |  |  |  |  |  | 
2 | Cc1ccccc1-c1cc(Cl)c(=O)n(C)c1-c1c(F)cccc1F [Compound 181] |  |  |  |  |  | H (H shows more than 50% of control values) | H (H shows more than 50% of control values) | L (L shows 50% or less of control values) | H (H shows more than 50% of control values) | L (L shows 50% or less of control values) | 
3 | CCn1c(-c2c(F)cccc2F)c(-c2cc(OCOCC[Si](C)(C)C)ccc2Cl)ccc1=O [Compound 245] |  |  |  |  |  |  |  |  |  |  | Test B control value (gray mold on tomato) (Botrytis cinerea; [2]): H (H shows more than 50% of control values); Test C control value (Alternaria sooty spot on cabbage) (Alternaia brassicicola; [2]): H (H shows more than 50% of control values); Test D control value (powdery mildew on barley) [1, 2]: H (H shows more than 50% of control values); Test E control value (brown rust on wheat) (Puccinia recondita; [2]): L (L shows 50% or less of control values); Test G control value (downy mildew on vine) (Plasmopara viticola; 250 ppm spray (2.5 ml/pot), preventive, 7-10 days after inoculation, control value class): L (L shows 50% or less of control values)
4 | CCn1c(-c2c(F)cccc2F)c(-c2cccc(F)c2Cl)cc(Cl)c1=O [Compound 507] | H (H shows more than 50% of control values) | H (H shows more than 50% of control values) | H (H shows more than 50% of control values) | H (H shows more than 50% of control values) | H (H shows more than 50% of control values) |  |  |  |  |  | 
5 | CCn1c(-c2c(F)cc(C)cc2F)c(-c2cc(F)ccc2Cl)cc(C)c1=O [Compound 710] |  |  |  |  |  |  |  |  |  |  | Test B (control value class, gray mold on tomato) (Botrytis cinerea; in vivo): H (H shows more than 50% of control values); Test C (control value class, Alternaria sooty spot on cabbage) (Alternaia brassicicola; in vivo): H (H shows more than 50% of control values); Test D (control value class, powdery mildew on barley) ([1]; in vivo): H (H shows more than 50% of control values); Test E (control value class, brown rust on wheat) (Puccinia recondita; in vivo): H (H shows more than 50% of control values); Test G (control value class, downy mildew on vine) (Plasmopara viticola; 250 ppm, sprayed 2.5 ml/pot before inoculation, evaluated 7-10 days after inoculation): L (L shows 50% or less of control values)
6 | Cn1c(-c2c(F)cccc2F)c(-c2cccc(F)c2)ccc1=O [Compound 168] |  |  |  |  |  | H (H shows more than 50% of control values) | H (H shows more than 50% of control values) | H (H shows more than 50% of control values) | H (H shows more than 50% of control values) | H (H shows more than 50% of control values) | 
7 | COc1cc(OC)c(Cl)c(-c2ccc(=O)n(/C=C/F)c2-c2c(F)cc(F)cc2F)c1 [Compound 379] | H (H shows more than 50% of control values) | H (H shows more than 50% of control values) | H (H shows more than 50% of control values) | H (H shows more than 50% of control values) | H (H shows more than 50% of control values) |  |  |  |  |  | 
8 | CN1C(=O)CCC(c2cccc(F)c2)=C1c1c(F)cccc1F [Compound 172] |  |  |  |  |  | H (H shows more than 50% of control values) | H (H shows more than 50% of control values) | H (H shows more than 50% of control values) | H (H shows more than 50% of control values) | L (L shows 50% or less of control values) | 
